Results reported in the supplement of paper PMC7826260.
Some of the results follow. Cleavage of a single-stranded DNA pool by Rep nickase domains was read by sequencing (3 µM enzyme, 1 h, 37 °C); shown is the middle of each 90-letter strand. A value is the log2 ratio of uncut reads to the pool without enzyme; uncut sequences lie near 0, cut ones below; no hit call is given. Reads are scaled to the total, so uncut sequences can rise above 0 when many others are cut.

Columns and labels:
Assay in all cases: uncleaved DNA left, log2 of reads against the no-enzyme library (log2 ratio); higher = less cleavage (more negative = more Rep cleavage of the k-mer); sequences stand for … in CTCGTCCG…ACCGGAGA
[1] = system: T1, Rep nickase domain of Muscovy duck circovirus
T1 sequence (residues 1-111, tag not shown): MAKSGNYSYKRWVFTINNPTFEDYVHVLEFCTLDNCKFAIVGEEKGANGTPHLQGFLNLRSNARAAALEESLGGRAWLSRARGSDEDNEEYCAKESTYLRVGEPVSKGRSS
Experimental: (§1)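 A pool of 90-nt single-stranded DNAs with seven random bases just before the constant AC of the nick site (name = the seven bases) was cut by 3 µM recombinant His6-SUMO-tagged Rep nickase domain (300 nM DNA, 50 mM HEPES pH 8.0, 50 mM NaCl, 1 mM MnCl2, 1 h, 37 °C, three replicates). Uncut DNA was amplified and sequenced.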

[2] = system: T2, Rep nickase domain of banana bunchy top virus
T2 sequence (residues 1-94, tag not shown): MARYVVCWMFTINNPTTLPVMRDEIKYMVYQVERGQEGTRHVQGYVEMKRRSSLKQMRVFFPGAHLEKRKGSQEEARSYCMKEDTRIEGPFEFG
Experimental: as §1

[3] = system: T3, Rep nickase domain of cabbage leaf curl virus
T3 sequence (residues 1-116, tag not shown): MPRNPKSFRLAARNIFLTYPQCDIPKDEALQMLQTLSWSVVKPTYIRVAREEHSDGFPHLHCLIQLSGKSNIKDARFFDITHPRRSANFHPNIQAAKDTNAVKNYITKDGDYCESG
Experimental: as §1

[4] = system: T4, Rep nickase domain of chickpea chlorotic dwarf virus
T4 sequence (residues 1-124, tag not shown): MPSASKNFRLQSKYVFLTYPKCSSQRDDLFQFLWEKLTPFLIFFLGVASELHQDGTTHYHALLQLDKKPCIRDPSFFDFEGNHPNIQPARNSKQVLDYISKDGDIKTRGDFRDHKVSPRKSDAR
Experimental: as §1

[5] = system: T5, Rep nickase domain of faba bean necrotic yellows virus
T5 sequence (residues 1-98, tag not shown): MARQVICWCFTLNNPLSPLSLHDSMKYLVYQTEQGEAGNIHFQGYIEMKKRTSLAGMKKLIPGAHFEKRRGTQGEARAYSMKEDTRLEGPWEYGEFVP
Experimental: as §1

[6] = system: T6, Rep nickase domain of maize striate mosaic virus
T6 sequence (residues 1-117, tag not shown): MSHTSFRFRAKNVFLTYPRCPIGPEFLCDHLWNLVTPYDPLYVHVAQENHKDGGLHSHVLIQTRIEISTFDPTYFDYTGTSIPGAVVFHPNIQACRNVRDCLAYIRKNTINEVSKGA
Experimental: as §1

[7] = system: T7, Rep nickase domain of porcine circovirus 2
T7 sequence (residues 2-116, tag not shown): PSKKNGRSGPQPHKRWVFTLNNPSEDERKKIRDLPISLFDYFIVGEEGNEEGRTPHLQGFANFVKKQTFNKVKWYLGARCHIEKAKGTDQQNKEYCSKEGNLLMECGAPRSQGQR
Experimental: as §1

[8] = system: T8, Rep nickase domain of tomato yellow leaf curl virus
T8 sequence (residues 1-136, tag not shown): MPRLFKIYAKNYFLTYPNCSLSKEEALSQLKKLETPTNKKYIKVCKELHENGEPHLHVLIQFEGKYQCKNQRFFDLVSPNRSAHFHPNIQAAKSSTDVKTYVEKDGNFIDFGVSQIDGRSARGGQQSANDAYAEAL
Experimental: as §1

[9] = system: T9, Rep nickase domain of wheat dwarf virus
T9 sequence (residues 1-137, tag not shown): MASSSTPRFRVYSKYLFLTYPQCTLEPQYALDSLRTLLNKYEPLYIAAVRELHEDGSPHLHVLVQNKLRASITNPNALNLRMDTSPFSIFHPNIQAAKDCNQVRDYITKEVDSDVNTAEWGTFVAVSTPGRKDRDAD
Experimental: as §1

| Sequence | uncleaved DNA left (log2) [1] | uncleaved DNA left (log2) [2] | uncleaved DNA left (log2) [3] | uncleaved DNA left (log2) [4] | uncleaved DNA left (log2) [5] | uncleaved DNA left (log2) [6] | uncleaved DNA left (log2) [7] | uncleaved DNA left (log2) [8] | uncleaved DNA left (log2) [9] |
| --- | --- | --- | --- | --- | --- | --- | --- | --- | --- |
| GAGCATC | -0.0154 | 0.0771 | 0.415 | 1.21 | 0.0113 | 1.42 | -0.0225 | 0.0836 | 0.0812 |
| CGTATCC | -0.0283 | 0.0659 | 0.0706 | 0.15 | -0.0538 | -0.151 | -0.0336 | -0.0276 | 0.0693 |
| ACTCTCT | -0.14 | -0.192 | -0.459 | -2.19 | -0.127 | -0.616 | -0.701 | -0.308 | -0.1 |
| AGACGGA | 0.0236 | 0.0742 | 0.277 | 0.75 | 0.000274 | 0.884 | 0.15 | 0.0653 | 0.0548 |
| GGCGCAG | -0.0459 | 0.0588 | 0.371 | 1.06 | 0.00675 | 1.76 | 0.229 | -0.0249 | 0.133 |
| GAGGGTC | 0.0181 | 0.0822 | 0.499 | 0.731 | -0.0404 | 1.66 | 0.134 | 0.0676 | 0.0411 |
| AGAGTTA | 0.0887 | 0.0375 | 0.218 | -0.325 | 0.0721 | 0.282 | -0.292 | 0.17 | 0.222 |
| GTCTACC | 6.25e-05 | -0.0174 | 0.248 | 0.333 | -0.106 | 1.5 | -0.0389 | -0.0247 | 0.0286 |
| ACCGCCG | -0.0549 | -0.021 | -0.469 | 0.648 | -0.0616 | -0.0613 | 0.0842 | -0.0392 | -0.183 |
| GTGGGCG | -0.0666 | -0.0241 | -0.372 | 0.624 | 0.0857 | -0.238 | 0.181 | -0.0244 | -0.133 |
| CTAGAGA | 0.056 | -0.0116 | 0.247 | 0.45 | 0.0017 | -0.584 | 0.0333 | -0.151 | -0.0174 |
| GTAGGAT | -0.0377 | -0.0273 | 0.171 | 1.36 | -0.0242 | 1.79 | 0.0732 | -0.174 | -0.0597 |
| TCTCCGC | 0.151 | 0.0573 | -0.0602 | -0.106 | 0.091 | -0.347 | 0.0919 | 0.00114 | 0.0723 |
| AACCCTT | 0.114 | 0.081 | 0.871 | 0.657 | 0.0218 | 2.08 | -0.141 | 0.141 | 0.182 |
| CCTGTGC | 0.0526 | -0.0837 | -0.705 | -0.722 | 0.0264 | -1.05 | 0.13 | 0.0403 | -0.00164 |
| CGATAAC | 0.0265 | -0.00878 | -0.431 | -1.24 | 0.0379 | -0.473 | 0.00955 | -0.00206 | 0.0414 |
| GTTATCT | 0.102 | 0.141 | 0.384 | 0.828 | -0.0479 | 1.77 | 0.11 | 0.212 | 0.136 |
| GTCGTAC | -0.0786 | -0.0175 | 0.199 | 0.707 | -0.0115 | 1.58 | -0.0778 | -0.057 | 0.00875 |
| TACAATA | 0.0406 | 0.0318 | -0.322 | -2.67 | 0.0593 | -0.576 | -0.059 | -0.033 | 0.00326 |
| TAAAGGG | 0.163 | 0.0325 | -0.578 | -1.11 | 0.167 | -0.474 | 0.163 | -0.00841 | 0.00556 |
| AGCCCAA | -0.0401 | -0.0694 | 0.504 | 1.1 | -0.0321 | 1.12 | -0.0273 | 0.0266 | 0.143 |
| GGGCCTT | 0.0778 | 0.0508 | 0.829 | 1.99 | 0.0938 | 2.31 | 0.142 | 0.0804 | 0.188 |
| TCGCATT | 0.0304 | -0.0282 | -0.0891 | -1.49 | -0.0529 | -0.381 | -1.13 | 0.0649 | 0.158 |
| GTTGCTT | -0.12 | -0.105 | 0.0444 | 0.332 | -0.0453 | 0.496 | -0.0487 | -0.0738 | -0.156 |
| AGACCAG | 0.0662 | -0.00938 | 0.381 | 1.08 | -0.00357 | 0.12 | 0.0753 | 0.0262 | 0.09 |
| GGGCACG | 0.0036 | 0.043 | 0.735 | 1.66 | -0.115 | 1.96 | 0.116 | -0.0938 | 0.0955 |
| TGTGATG | 0.0898 | -0.0697 | -0.139 | 0.23 | 0.0795 | 0.267 | 0.128 | -0.0601 | -0.00917 |
| CTTAGGG | 0.0306 | 0.0429 | -0.179 | 0.0543 | 0.0726 | -0.65 | 0.191 | 0.0233 | -0.0225 |
| AGGCATA | 0.0434 | 0.113 | 0.342 | 1.03 | 0.0293 | 1.25 | -0.061 | 0.051 | 0.192 |
| GGCTATT | -2.27 | -0.102 | 0.421 | 0.719 | -0.0932 | 1.86 | -2.69 | 0.0396 | -0.0174 |
